# Whole data set: some 2,700 sequences, median “arbitrary fluorescence units” near 4,100, cut for the highest 2% near 54,000. Some of the results follow.
# Target: T1, ETS1 (UniProt P14921)
# T1 sequence: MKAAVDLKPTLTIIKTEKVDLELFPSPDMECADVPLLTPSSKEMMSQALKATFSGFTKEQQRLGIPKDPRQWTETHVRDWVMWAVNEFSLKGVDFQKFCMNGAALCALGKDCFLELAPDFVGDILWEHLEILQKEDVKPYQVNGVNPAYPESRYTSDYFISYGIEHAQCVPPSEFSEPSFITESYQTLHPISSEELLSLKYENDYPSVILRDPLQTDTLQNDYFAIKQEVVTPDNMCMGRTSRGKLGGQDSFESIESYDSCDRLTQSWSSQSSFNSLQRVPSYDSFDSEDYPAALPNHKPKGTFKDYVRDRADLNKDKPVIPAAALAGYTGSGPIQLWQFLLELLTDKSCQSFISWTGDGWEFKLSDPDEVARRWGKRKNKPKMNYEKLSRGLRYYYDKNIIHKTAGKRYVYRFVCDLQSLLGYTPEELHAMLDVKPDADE
# Test: ETS1 binding intensity (PBM fluorescence) (arbitrary fluorescence units); higher = stronger binding
# Details: ETS1 concentration 10 nM
# Method: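 gcPBM on wild-type 36-bp genomic probes with two neighbouring ETS1 sites (4-24 bp apart). Recombinant human ETS1 (10 nM) was detected with anti-ETS1 antibody fluorescence. Values are medians over 3 replicate spots. The probes sit in constant array flanks that are not printed.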
row,Sequence,ETS1 binding intensity
1,CTGGGTTCCGGTGTTGACGGGCACCACTTCCCTTTT,13600
2,GAGAATGCAAGGAAGTGACTATTTCCTCCTGCCTGT,2280
3,AGGCTGCATCCTGACCTTAGCCTCCATCCGCAGCAG,3090
4,TGCCACCACACCAGGATGCTTCCGTCTTTGAAGGCA,1030
5,GCCTGGGAACATGCTTCCTTTCCTGCTCCCGCTGGC,1240
6,CGGCGGCTGCCGGAAAGCCACTTCCGGCCTGCTCCA,25400
7,ACGACGCAGCCACTTCCGATTCCGGTCGGAGCACCG,8910
8,GTCCGGGAAATGAGCATTGCTGCCACCAGGAAACTG,383
9,AACAGCAGGATGTTAAACACTTTAACATCCTGTTAG,6640
10,CCTGGCCGGAAACTGAGCCGTTCACTTCCGCCACCA,14000
11,TGAAAGTTTCCTGTTTTGCAAACTCCGGATATAAGC,23100
12,ACGTGGAGGAAATGCTCACGGCTTCGGATGCTATGA,569
13,TGTGCCGTTTTCCGTCCGCGACTCTTCCGGCCCAGA,3470
14,GGCCGCTTCCGAGCGCCGCCAACCGCTTCCGGGTTC,5250
15,CGCAATCTGCTTCCGGGAGTGACGGAAACTGCTAGC,10700
16,GGTGTTCCGGACCCGCGCGGTGCGGGGAGGAAGGCC,1700
17,TAGTTGTCCCTTCCTTAAGCACTTCCTGTTTGATCT,11900
18,GCACAGGATGTATGTAGAATGTGATTACTTCCTCTC,4010
19,TTATTCTGTTTCCGGCAGTTTTACTTCCGTTTGTTT,15900
20,TCTTAAGGAAGTTGAAGGCAAATCAACTTCCTGGTA,2210
21,GTGTAATCCCAGCTTCCGGTTTCCTCACGTATACAG,41400
22,CGTCACTTCCGTTGCTTAGGAGCACTGGGAAGTGTA,37800
23,GCCTTCAAAGCTTCCTGCCAACTTCCTCTAGACAAC,15000
24,GCCGCCGCGTACTTCCGGCCGGAAGAAAGGGCGGGC,65400
25,CCCCAACAGGAAGTGAAAGCCCACATCCGTTGTCTT,22500

row,Sequence,ETS1 binding intensity
1,AAAAGGAGGCTTCCTGGTTTAAAGGAAGTTGCTCTG,4680
2,TGGTCCCCGTTTAGGAAACGGAAAAAGGGGCGTGCA,175
3,GGATAACGGGCCCGGAAGCCGGAAGTTCAAAGCCGG,10800
4,GCTGCTGGACAGGAAACAGGCAGGAAACGCGCGGCC,7430
5,CCGCCGGAAACCTCGGTCCTCACGGTGCTTCCCGGT,2650
6,CATCGGGCACTTCCTTCGAGCCGGAATCGAACCAGC,4100
7,TACTGGTGTGTACAGGAAGGAAGTTCACTTTGACTA,603
8,GTGCGTGGGCCTTCCGGGCCCGGAAGAAACTGCGTT,2560
9,AGGGGGCAGGATGCTGGTGGGCACAGGATGTTGGTG,2440
10,TGTCCCTTACAAGGATGCTCATCCTGCACTGCTCAC,330
11,GAGGGACTAAGGAAGTTGAGACAGGAAAAGAGCCAT,875
12,GTCACCCTTTCCTGCCGCCTCCCCGGATGAACTGCA,5070
13,TCCATTTTATCCTGTCTGGACCACATCCTGTTTTGG,5840
14,GGGGCCGATGCACTTCCGGCTTCCTCCTCCTCTGCC,44900
15,TAACCATTTCCGGGTGAAGAGTGAGTTTCCGGTGTC,31100
16,ACAACTTCCGGCTGTAAAGATGGCGGCTTCCTAGTG,96400
17,GCAGGGCTTCCTGTGGTGTCTTCATTTCCCGAGCCG,18400
18,CAAGACCGGAAGCGGAAATGGAATCGAGATAGCCTC,38200
19,ATCCTCCACTTCCTAGGGTACCAGGAAATCTCCCCT,1650
20,GGCTTGTGACTGCCGGATTTCCCCCACTTCCCTGAA,330
21,CTCGGGCCGCCCTTCCGCGCTTCCGGGAGGCTTGTC,5910
22,CTCAGAAACAGGAAAGGCTGTACTTCCTTTTCACCA,2020
23,TCCTTGGTATTTCCTGAGTGATAGGATGTCTTTGTT,6420
24,CAGCACTTCCTGGACATTTATACACTCATCCTGTAT,25600
25,CGGCCCCTGCGGCTTCCGGCTTCCTGGCCGTCAAGC,22000

row,Sequence,ETS1 binding intensity
1,TCCTCCTTCCGCCACAACACGATCACTTCCGGTTGG,25600
2,GTTCTCACCACAGGATGATTTTCCTGTTTTCGCCCA,411
3,GCCCTGGCCTTGACTTCCTTTCCTGTCACTTGCGTG,2540
4,GCACTGGCGGAAGTGAGATGCAAGAGGAAGCTCACG,7490
5,AGATGAAACATCCTTCTCACCACATCCTGTCAAGGT,8100
6,AAGGTGAGAACGGAACCGTAGCTTCCGCCGGCGGAC,1520
7,AGAGAGGGACTTCCGAGTGGGTCTTCCGGTTTTGTG,7930
8,CAGAAGGTGTTCAGGAAACAGGAAGCTGTCAGCCAG,2470
9,GGAGGGAGGAAACAGATGGGCCAAGAGGAAGCCACA,377
10,AATAATCAGTCACTTCCTCGGGAAGTCATTTTCAAT,826
11,GGTCCCCCTGCACTTCCTCATCCGGGGCCCGAGCCA,3270
12,TCTCCTCTACAGGAAACCTCATATCCTGTAAGCTAT,2440
13,TTTTAGGGTATTTCCTGTTTGTTTCCTGCACACACA,30800
14,CCCCGCAAAACCCGGAAGCCTTCCGCTTCACTCTGG,2210
15,AGGCACTAGGAAGCAGTTACTCATTTCCTGGAGGTT,634
16,GAACCCTTCCTGCAGGGAGGCCGCCCGGATGCAACA,4620
17,ATAAAACTACATTTCCCAGTTTCCTTTGCAGTTAGG,252
18,ACGTCTTTTCCTGTCTTCAAGCACAGGAAATCAGTT,11000
19,CACCAGCTTCCTGTTGCAGAGTTTGGGAAGTGAATC,35200
20,GGCGAGGAAGTGGGCAGAAGAAGCCGAGGAAGCAGG,454
21,GAGAAGCGCCTTCCTGTCACCCAGGAAGCTGCAACC,10200
22,TGAATGCTGTCATTTCCGCTTCCGCCTCCTTCTTTC,26500
23,CGAAGTTTGGCGGAACATGGCGGAAGCGTCTGGGGC,384
24,ACAGAGCGTTGCGGAAACTCTTCCTGTGTCCAGGCA,1900
25,ATCGCTCTCTGTTCCTGTCTACTTCCTGAGCCAAGA,1290

row,Sequence,ETS1 binding intensity
1,CGAAGCGACGGCCCGGAAGGAAGTCGCGTGCTGAGG,1120
2,GGCGGCGACGGAAGTGAAGTCACTTCCGGGCTGGGG,21300
3,CCTCCCTCTTTCCGTAGCGCAGCTTCCTGCCCAGAG,3600
4,CAGTTTGCATTTCCTGTTTTCGCTTCCTTATGTGTT,32600
5,GAGGCAGGAAAGGCCAGTGGGCAAAACGGAACATGA,212
6,GCCCTGGCATTCCGGGTCTGTTCTTTCCGCTCTTCG,296
7,CAACTTGTCGGAGCGGAACTTCCGGCGTCCTCCCTG,22800
8,AATGCACTCATTTCCTGCTCCCGGATGAGCATCAGC,20600
9,GGACCCTGGCCGCTTCCGTTTCCTCAGATACCTACT,10900
10,CATGACTGGGGAAATGCATGAAAAGGAAATGATGCA,192
11,GCAGAAGGGGCATCCGGGCAGCTTCCTGGTGCACAT,9490
12,AGAAAGGGTTTTTCCTGCCACAGGATATAACTTTTT,2070
13,GACTTCATCTACTTCCTGAGTTTCCTTGTGACATTT,11500
14,CAGCCCGGCCGGATTTGCACTCGGAAGCTGCCGCGG,248
15,GCGTTCGCCTGCAGGAAGCGGAAGTAAAAGGGCGGC,5870
16,GCCATACACATCCGCGGGAACGCTTCCTCCACCAGC,2500
17,CGCAGAACGTTTCCCTGCAATGCTTCCTCCTGCCGC,252
18,AGGGTAACATGGCGGATGCGGAAGGTAAGGGCTGCA,447
19,CCCACCTGCTTTCTTCCTGCTTCCTGTGGGTTGCAC,5170
20,GCCGCGCTTCCGCGATGCGCGGCCCTTCCGCCGGCT,9280
21,GCACCTACACCTTCCTGCACCTTCCGCTGCAGAACA,1950
22,AATACACAGGAAACTACATCTCCCAGGAAGCACCGC,3980
23,ATGAACTTCCTGCATAGTCAGAGACAGGAATGACGA,24800
24,GCCGTTCACCACTTCCTGTCTTCCTGCGACCCAGTG,43900
25,GACTCCATTTCCCAGCGTGCCTCAGGAAGGGCGCCA,189

row,Sequence,ETS1 binding intensity
1,GTTAGGTTAAGGAAGCTTGCCATTTCCCTTTTCAGA,439
2,CTGCCCCGGATGTGCCCCCTGCCCCGGATGTGTCCC,9170
3,AACTCAGGAAACCACAGGTGCTGGAGAGGATGTGGA,336
4,CGGCTATGGCAGCGGAAGCCGGAAGCGGCGAGCGGG,5440
5,ATCTCATAGCTTCCGCTGAGACATCCTGTCTCAGGG,12200
6,CTTTCTTAGACAGGAAGCAAAGGAAACTGGGACAAG,4830
7,CGCAGCCTCGGCCGGAAACGGAAACGACGCGAACCG,8430
8,TATGTTTCCGGAGGGGTAACGGCGGTGAGGAAATCA,16200
9,CGGCAGGGGAAATGAAGGAGATGACGGGAAATGATA,343
10,TATTTACAACACAGGAAACAGGATGCCCTTGTCCTC,2110
11,CATAACAGGAAATTAGAAACTTAACTTCCCTATTCA,8390
12,CGAGCGGGCAGGAAGCCCAGCGTTCCGGGTTCCAGG,1180
13,GGCGACCGGAAGGTCCTGGCCGCCTTTCCGGTCTCC,11100
14,TCCCACTTCCTCCTGCCCTGCTGAGTTTCCTGGGCC,25100
15,GCAGAAGCAGGAAGACAGCTGGCCGGAAGACAGGTA,1740
16,CTGTGGCCGATTTCCTTTCATTTCCCCGCCCCTCAC,4630
17,GCCTTTAAGGATGTAAGCACCACCTTCCTGTCTCCT,919
18,GAGAACAACAGGAAATGAGCCCGGAACGCAGGCCCC,13800
19,ATGGGCTGGGCAGGAAGGAGCGGAACAATGAAAGAT,752
20,AGTTAATGACAGGATGTCATGGGAAGTAGGGGCTGG,3810
21,CTTCCACATCTTCCTGCAGAGCATCCTGTCTGTGCA,4230
22,TAAAACATCAGAACTTCCTTCCTGTATGAGTGTACA,5420
23,GTAGGTACAGCCAGGAAAAGGATGTTGTCTGATTGT,231
24,CAAGCGATTCTTCCGCCTCAACTTCCTGAGTAGCTG,5800
25,GAAGGTGCTTAGGAAACCCTGCTTCCTTTTGTCTCT,279
